Data: the supplement of paper PMC10126150
Values marked as one replicate rest on one cluster of the flow cell; about a third of the high ones do not repeat.

Tested on: ATP
Experiment: switch fluorescence ratio, 500 uM ATP over buffer (Cy3 cluster intensity, sum of 5 cycles each) (fold (ratio)); higher = stronger signal-on switching upon ATP binding; sequences stand for … in TCGTCGGCAGCGTCAGATGTGTATAAGAGACAGTTTTTTTTTTTTTTTTTTTTTTTTT…TC
Details: aptamer strand: ATP DNA aptamer (quencher-CACCTGGGGGAGTATTGCGGAGGAAGG + anchor), 100 nM annealed; ATP concentration: 500 uM; one replicate
Method in brief: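 Values give the fluorescence ratio for each switch-domain sequence, averaged from per-cluster ratios of summed target-cycle to summed buffer-cycle Cy3 intensity. The Cy3-labelled switching-strand clusters sat on a modified Illumina MiSeq flow-cell, were annealed to 100 nM quencher-labelled ATP aptamer, and were imaged in selection buffer, then after 15 min with 500 uM ATP at 22 °C. Five cycles ran with NaOH stripping and re-annealing between them, and clusters outside 100-1000 RFU were excluded.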
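Further: ATP exposure 15 min at 22 °C before imaging.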

| Sequence | switch fluorescence ratio |
| --- | --- |
| TCGCGGAAC | 2.44 |
| GGCAAAGAGT | 0.966 |
| GAAACAGAGA | 1.01 |
| GGATAGAAAG | 0.971 |
| GGTCTGCGTA | 1.07 |
| ATAGTGTGCT | 1.01 |
| AAGTAAATTG | 0.985 |
| ATGGGGACGC | 1 |
| CTTCAGAGGC | 1.06 |
| GCAATCGTCA | 1.15 |
| CATGGGGGT | 0.981 |
| TGGCTGGATG | 0.962 |
| CGAGTTGAGG | 1.01 |
| TTAACGGACG | 1.07 |
| CGAGGCCAAA | 1.22 |
| ATACGTCCTA | 1.04 |
| GGCAGGGTTC | 0.976 |
| TTTACCTGTG | 1.02 |
| GCCGAGATTA | 0.973 |
| CTGCTAAAA | 0.974 |
| GCGCCTTTAA | 0.994 |
| TGGGGAATCC | 1.04 |
| GAAGAATGCA | 0.953 |
| AATTAACAAA | 1.01 |
| TGCTCTGCC | 1.14 |
| CTGGCACGTA | 1.07 |

| Sequence | switch fluorescence ratio |
| --- | --- |
| TTTCAGAGTG | 1.04 |
| GATCGTCTTT | 0.996 |
| GTATTACAGT | 0.996 |
| CCCTGATCTC | 1.12 |
| AGGTTCGGCC | 0.969 |
| AAGAATACAC | 1.01 |
| CTCCCTTCCA | 1.36 |
| CTTAAACGCT | 0.999 |
| TCGGCTGTAC | 2.54 |
| AGCCGAAATA | 0.97 |
| TAACAAACGT | 1.25 |
| ACATTTAGCG | 0.978 |
| CCGTTCCCCG | 1.47 |
| GACAAAGGGG | 0.977 |
| CCCCTAGAAT | 0.964 |
| CGAGAGGCGG | 0.99 |
| TCTATTCGT | 0.993 |
| TATCTTGTTG | 1.02 |
| ATTTAAGATA | 1.01 |
| AATCTCAAGT | 1 |
| TACGGTAGGG | 1.09 |
| CACGATGAGG | 1.03 |
| CATTTCGGAC | 1.06 |
| GCAAATGGCT | 1.01 |
| GCTAGTCGGG | 0.959 |
| TAGTGTCTTC | 0.95 |

| Sequence | switch fluorescence ratio |
| --- | --- |
| CCAGAGGTCG | 0.97 |
| AGGTTAGAGC | 0.941 |
| CCATTTCAAG | 0.982 |
| AGTTGAGGGA | 1.02 |
| GGGTCGTTAG | 1.01 |
| TCTATAATAA | 1.05 |
| GTTGAATGGT | 1 |
| AAAACTCGGT | 0.982 |
| TTAACTCTAC | 1.15 |
| CGCTTGCACG | 0.993 |
| TTGGAGGAGC | 1.05 |
| CGTGGACCCC | 1.04 |
| CTGGGCTGCC | 1.02 |
| AAATTGTAAG | 1.02 |
| CTTCCAGACT | 1.12 |
| TCGCATGCTT | 1.19 |
| CCGCAGAGAT | 4.92 |
| TACCGGGTA | 0.987 |
| ACATGAGTT | 1 |
| GATCTAGGTA | 0.975 |
| ACGAGTCACT | 1.09 |
| ATTACACGC | 1.02 |
| TTCTGATTTG | 1 |
| CAGGGCCCAT | 1 |
| GGACTGTAAT | 1.13 |
| GTCGTAGACG | 1.04 |

| Sequence | switch fluorescence ratio |
| --- | --- |
| TATCGTAATG | 1.03 |
| TCGATTTAGC | 0.967 |
| ACTTCGACTA | 1.11 |
| ATATATAACT | 1.01 |
| AATGTGCGCG | 0.994 |
| CAATGCGC | 0.988 |
| ATCGGGGAAC | 1 |
| AGACTGCGAG | 0.99 |
| CTAAAGTAAA | 0.998 |
| CCGAGATGGG | 1.05 |
| CCCTATAAAA | 1.01 |
| CCCGTGAACT | 1.1 |
| AGATCGTCTT | 0.973 |
| GGGAAGGACC | 0.977 |
| CACGCCTTTA | 1.01 |
| GGGCTCGTGT | 0.979 |
| CTTTCATATA | 0.996 |
| ACGGGAGCCC | 0.975 |
| TGACGTCA | 1.03 |
| GGAGTCGGCA | 0.933 |
| GTCATCTAGT | 0.977 |
| CCGCTATTTT | 2.25 |
| TCACCGAACG | 1.34 |
| GTTTCGAGGC | 1.11 |
| TTAAAGATAG | 1.05 |
| TAAATTACGA | 1.06 |

| Sequence | switch fluorescence ratio |
| --- | --- |
| CTGGTGTCTG | 1.05 |
| CACGGGATT | 1.02 |
| TAAGACCTAC | 1.22 |
| CCGCTTAGCA | 1.65 |
| CGTTAAGAGA | 1.08 |
| GATCTACCTC | 1.07 |
| TCCGTCACGT | 1.1 |
| CCAGATTGTA | 0.984 |
| TGTGAGGGCT | 1.12 |
| TCAAGAGCCC | 1.01 |
| AAATGTCTCA | 0.999 |
| TAGATATACC | 0.966 |
| ATCGCTGTCG | 1.03 |
| TATTTCACAG | 1 |
| GGGTCTGCTG | 0.961 |
| GTCAGGGGTC | 1.06 |
| TCTAGCCCCA | 1.06 |
| GGTCCAGGGG | 1.84 |
| TTAGAAATT | 1.03 |
| ATGTAGGGCA | 1.01 |
| TCTAGATACG | 1.09 |
| CAGGACGATT | 0.991 |
| TAATTTGCCA | 0.958 |
| AACTAGATTT | 0.98 |
| TGGTGATGAG | 1.02 |
| TAATCAGGA | 1 |

| Sequence | switch fluorescence ratio |
| --- | --- |
| CATCCTTGAC | 1.08 |
| CGTTATCAGA | 0.997 |
| TTACAAACAG | 1.08 |
| AGCTAGTAAC | 1.02 |
| TGGAGTTCAC | 1 |
| ATTCAGAGTA | 0.969 |
| TCAGCAAAAC | 2.18 |
| CAGAGGAAGA | 1.01 |
| AGATCTAGCT | 0.962 |
| GCAATTGGAG | 1 |
| TTATAGTC | 0.947 |
| CCTCGTGTCG | 1.04 |
| GTGAGAGCCC | 0.983 |
| ATTGGCGCCC | 1.06 |
| CTGCATGAAA | 0.967 |
| TAACAACAGT | 1.01 |
| GATTACGTAC | 1.64 |
| ACGGAGCTGG | 2.01 |
| TGTGCCAGCC | 1.12 |
| GAACGGGCTA | 0.988 |
| AGGGGCCGCT | 0.965 |
| TTGGCGGGGG | 0.981 |
| TGGGGCGCCC | 1.17 |
| GCTAATTGA | 0.981 |
| GGGGCCCCCA | 1.08 |
| TCGCAACTAA | 4.12 |

| Sequence | switch fluorescence ratio |
| --- | --- |
| ACGTTCGCAC | 1.8 |
| CATCGTCGGG | 0.976 |
| TGGGATCGGC | 0.993 |
| GGTGTGTTAT | 0.988 |
| CTGTAATCTG | 1 |
| GGTATACCAA | 1.04 |
| GGTATAAGG | 0.97 |
| AGAGTTGAGG | 0.992 |
| TAATTTTTCT | 1.02 |
| TAAATGGAGC | 1.02 |
| GATGGATCTA | 0.99 |
| ATAAATTAGC | 1.01 |
| CACGCGTTAT | 1.02 |
| CGTACTGCGG | 1.08 |
| TCGCCTCGTA | 1 |
| CGATCCTTCG | 1.03 |
| CGCATTGCTG | 1.05 |
| TCTGACATCT | 0.988 |
| GTGGACTATG | 0.974 |
| TTCGTGAAAG | 0.96 |
| GGGTCTAACT | 1.05 |
| TGACATGGTA | 1.01 |
| CCTTGGCCTT | 1.1 |
| CGTTGACCAC | 1.04 |
| TTATATAGCG | 0.973 |
| CAGGCGGTA | 1.02 |

| Sequence | switch fluorescence ratio |
| --- | --- |
| CGTTGAGAAC | 0.981 |
| ACCATTGGCT | 0.994 |
| GGTTGTAGAA | 0.963 |
| TAGCTTTATC | 1.03 |
| TGGGGTGAT | 0.982 |
| ATTGGGGACG | 1.02 |
| GGCAGTATGG | 0.968 |
| CGTAAAGGTT | 1.01 |
| AAGTGCACGT | 0.966 |
| CGATTGTAAA | 0.991 |
| GCAAGGCGT | 1.04 |
| AGCCTGTCTG | 0.991 |
| GCGAATAGGG | 1.02 |
| CCTAATGTCG | 1 |
| GTTCAGTTAA | 1.02 |
| TGCATTTCCT | 1.03 |
| ATCGTGAGTA | 0.99 |
| GATTTCTCGC | 0.979 |
| GTCGGAGAGG | 0.961 |
